Measurements taken from the supplement of paper PMC3334620.
The full ranking holds about 33,000 sequences; the median of “E-score (-0.5 to 0.5)” is about -0.017, and the highest 2% start at about 0.3. The list shows a part of the results.

biological target: T1, Sut1 (UniProt P53032); experiment: PBM E-score (8-mer binding enrichment) (E-score (-0.5 to 0.5)); higher = stronger / more preferred TF binding; most listed sequences are background and not binding sites; settings: protein concentration: 200 nM; construct: GST-full length
T1 sequence: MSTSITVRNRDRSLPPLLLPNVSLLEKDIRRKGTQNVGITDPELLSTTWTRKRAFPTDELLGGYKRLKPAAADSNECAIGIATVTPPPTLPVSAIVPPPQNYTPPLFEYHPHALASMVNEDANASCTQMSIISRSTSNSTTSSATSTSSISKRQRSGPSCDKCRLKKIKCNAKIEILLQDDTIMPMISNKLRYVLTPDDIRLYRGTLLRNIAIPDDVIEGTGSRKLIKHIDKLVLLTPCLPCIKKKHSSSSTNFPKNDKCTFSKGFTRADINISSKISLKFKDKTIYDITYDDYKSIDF
Method in brief: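 PURExpress in vitro transcription/translation supplied GST-tagged yeast transcription factors, either full-length or DNA-binding domain. Applied at about 100-200 nM to universal all-10-mer Agilent arrays double-stranded by primer extension, the bound protein was detected with fluorescent anti-GST. E-scores, modified Wilcoxon-Mann-Whitney statistics, were given by the Universal PBM Analysis Suite to ungapped eight-base words pooled with their reverse complements after masliner normalisation.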

Sequence | PBM E-score
TCACATGA | -0.156
GAATACGA | 0.0862
AGTTGCGC | -0.0632
ATAGACAA | 0.11
ATGGATAG | -0.118
GGGGGTAA | -0.343
GGGGGGGA | -0.466
AAGTAACG | 0.218
ACAGGGTA | -0.158
AAGTTAGT | 0.165
GATGAGGA | -0.0512
TATAGACA | 0.136
GTATGAAA | 0.221
ATTCGAGC | 0.00401
AGGCGTTC | -0.248
GGATTGAA | 0.257
CGCTGCCA | -0.0883
AGCAGACG | -0.185
ACGTTTAT | 0.0924
CCACGATC | -0.00633
GTCTTTGA | -0.0789
CCTGCGGA | 0.105
CAACATCA | 0.0607
TAGGTACA | -0.0499
CTCAAGTA | 0.0605

Sequence | PBM E-score
ACCCCCCC | -0.42
ACCCCGGC | 0.183
CAGATACA | 0.223
GATAACGC | 0.105
AGGCCAGC | -0.255
CGATAACG | 0.104
CATGCATC | 0.154
ACCAAAAT | 0.0417
CTCCTACC | 0.111
TACCCGTA | -0.0387
ATATCGGA | 0.331
CAGCCTGG | -0.158
GTACGGAA | 0.22
AGACTGTG | -0.283
CTAATGTC | 0.0036
CAAAAAGG | 0.00739
AGTTGTTC | 0.244
ATATCCGC | 0.171
AGGCCATC | -0.149
ATCAGCCA | -0.138
TACGGGGA | -0.0333
CGTTATAA | 0.135
TCAGGTAA | -0.0276
AGCAGTTC | 0.0132
AAATGGAC | 0.23

Sequence | PBM E-score
CGGTCAGA | -0.00289
ATTAAAGC | 0.112
TCACTCCA | -0.00881
CAGCGCTC | -0.226
CGCGTAAC | -0.0649
CTTCGCGA | -0.141
TCTTATAA | 0.2
TCGGATAA | 0.318
AAAAGGGT | 0.0354
AGTCCCCA | -0.109
ATCGCCGA | 0.0653
CATTCGCC | -0.262
AAAGATTT | 0.164
CTCGGATC | 0.204
AACAGACC | 0.103
CAACTCTG | -0.157
CGTTATCC | 0.138
CCTGACCG | -0.157
GTTCAGTA | -0.0889
ACGCGGTA | -0.0143
GCATATAC | -0.121
CCGGTGCC | -0.0163
ATGCCATC | 0.0993
AACCCGGA | 0.333
AGGCTGTG | -0.0562

Sequence | PBM E-score
ACCTAGCC | -0.132
GGGCAAAA | 0.0783
ACGGGCAT | -0.19
GAACGCTA | -0.0848
GCAGGGAC | -0.237
GCTAGAGC | -0.0744
TACACCTA | 0.0806
CATAGGCG | -0.309
CCTTCCAA | 0.0242
GTATAGCA | 0.174
ATTGCTCC | 0.0554
CAGTCCGG | 0.353
CACAACAC | 0.0343
AAATCATT | 0.22
CTACGGTC | -0.0539
CACAGTAC | -0.0582
CTCCATTC | -0.0141
AGAATCCC | 0.0785
CTCGGGGC | 0.00548
CCCTTTTC | -0.0793
GATTCTGA | 0.0158
ATCTTTAC | 0.125
CAATACTG | -0.0987
AACGTAAG | -0.0341
CTTGCAGC | -0.0219

Sequence | PBM E-score
GCGTACAC | -0.11
ATCGGATG | 0.157
CACCTACA | -0.188
GCAAGCTA | -0.0635
ATTAGATC | 0.0421
AACTGACT | 0.0907
ACCACAAG | -0.0669
CGGTCCGC | 0.125
ATTGCGTG | -0.0118
ACGATCCG | 0.132
GGTCGAGA | -0.209
ATGTCGAG | 0.0304
ACTACAAA | 0.302
TTAGCTAA | 0.00949
AAGTAATA | 0.106
GCACACAC | -0.261
GTCCACAA | -0.0143
ACCTAATG | -0.117
CCGCCTAC | 0.051
AGTTCAAT | -0.104
CCAAGAAC | -0.0556
TAATCGTA | 0.0634
CCCAAAAA | -0.0605
AGAGGATC | -0.182
TCCTGAGA | -0.119

Sequence | PBM E-score
CAATCTTA | 0.11
AACGCGGT | 0.0374
ACTTTCCC | 0.092
CTTGTTTA | 0.0761
GTATGCCA | -0.292
CCGTGATC | 0.0824
ACCTTGCA | 0.0126
ACCAGCGG | -0.131
AGCGAAAA | 0.0874
ATGGCCAG | 0.133
TCAACGAA | 0.037
CCCTTTCC | -0.257
ACCAACAA | 0.299
AAAGAGAA | 0.163
CCTCAAGA | -0.113
AGGTAACT | -0.0505
GAAATATC | 0.068
AGTATGTC | -0.079
GCCCAAAC | -0.125
AGCCGGCC | -0.0862
ACCTACTC | -0.0084
AAGCTTGA | -0.00902
CACGGTCA | -0.0106
AAGTCAGA | -0.00235
CTTAACCC | 0.0641

Sequence | PBM E-score
ACTTGCAG | -0.0894
CGCCAGTC | -0.189
ATAAGCTA | 0.144
CCCCCAGA | -0.337
AGAGAAGA | 0.0354
ACGACGAA | 0.119
ACTCTACT | 0.0401
AAAGTCTT | 0.00332
TTGAAAAA | 0.173
CGTAATTC | 0.0414
AACTTATG | 0.0687
ATTGCGTC | -0.00332
CACCCAAC | 0.0668
ACTTACAG | 0.0155
CGCGGTCA | -0.0989
ACATCGGG | -0.293
GAACCTAC | -0.0695
ACTTAGTA | 0.15
AAGCCTGA | -0.208
GTACTAGA | 0.123
AAAATCCC | 0.068
GCTGACAA | -0.0201
